Assay results reported in publication PMC4627809, “Client Proteins and Small Molecule Inhibitors Display Distinct Binding Preferences for Constitutive and Stress-Induced HSP90 Isoforms and Their Conformationally Restricted Mutants” (PLoS ONE, 2015).

Biological target: T1, FLAG-HSP90α wild type (human, UniProt P07900 1-732)
T1 construct: HSP90α, stress-inducible cytosolic HSP90 isoform, encoded by HSP90AA1, human; The plasmid list names only pcDNA3-FLAG-HSP90α; the LUMIER methods call the protein 3XFLAG-tagged; also called HSP90α WT; 3XFLAG-HSP90α; source: HEK293, transfected, in lysate
Assay: LUMIER; HEK293 in 96-well plates co-transfected with NanoLuc-client and 3XFLAG-HSP90α or β; TGNET lysate on anti-FLAG antibody-coated plate 2 h at 4°C; NanoLuc read-out divided by anti-FLAG-HRP read-out = relative interaction strength
Settings: partners not purified

fold difference in relative interaction strength, HSP90α against HSP90β: > 3 fold
B1: NL-HIF1α (natural protein)
chain: not shown
notes: hypoxia inducible factor 1α (HIF1α); also called HIF1α fused to NanoLuc luciferase; source: HEK293, transfected, in lysate; not shown: NanoLuc luciferase, N-terminal, kept
